The RNAGym collection of RNA variant scans (doi:10.1073/pnas.2313332121)
Variants at the background level are over-represented here.

B1: TPR 5TU (parent)
chain: GGAUCUUCUCGAUCUAACAAAAAAGACAAAUCUGCCACAAAGCUUGAGAGCAUCUUCGGAUGCAGAGGCGGCAGCCUUCGGUGGCGCGAUAGCGCCAACGUUCUCAACUAUGACACGCAAAACGCGUGCUCCGUUGAAUGGAGUUUAUCAUG

Variants of: B1
Assay: polymerase ribozyme fitness, log enrichment relative to wild type (log ratio); higher = more active; in vitro selection for triplet polymerase activity
How it was run: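 Input and output libraries were sequenced on Illumina after a single in vitro selection round, run in triplicate on PCR-built, transcribed mutant libraries of each subunit of a heterodimeric triplet polymerase ribozyme. Selection annealed libraries to a biotinylated primer, the partner subunit and triplets, incubated them frozen at −7 °C, then gel-excised extended constructs for streptavidin-bead capture and RT-PCR. Genotypes with ≥10 input reads and ≥1 read per output were kept. Fitness is the logarithm, taken in base 2, of genotype enrichment divided by wild-type enrichment, using inverse-variance-weighted replicate averages.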

Question: With GGAUCUUCUCGAUCUAACAACAAAGACAAAUCUGCCACAAAGCUUGAGCGCAUCUUCGGAUGCAGAGUCGGCUGCCUUCGGUGGCGCGAUAGCGCCGACGUUCUCAACUAUGACACGCAAAACGCGUGCUCCGUUGAAUGGAGUUUAUCAUG as the variant, how does the “polymerase ribozyme fitness (log ratio)” value read?
Answer: ≤ -4.2

Question: Which “polymerase ribozyme fitness (log ratio)” value does the source give for GGAUCUUCUCGAUCUAACAACAAAGACAAAUCUGCCACAAAGCUUGAGAGCAUCUUCGGGUGCAGAGGCGGCAGCCUUCGGUGGCGCGAUAGCGCCAACGUUCUCAACUAUGACACGCAAAACGCGUGCUCCGUUGAAUGGAGUUUAUCAUG here?
Answer: 0.714

Question: Which “polymerase ribozyme fitness (log ratio)” value does the source give for GGAUCUUCUCGAUCUAACAACAAAGACAAAUCUGCCACAAAGCUUGAGAGCAUCUUCGGAUGCUGAGGCGGCAGCCUUCGGGGGCACGAUAGCGCCAACGUUCUCAACUAUGACACGCAAAACGCGUGCUCCGUUGAAUGGAGUUUAUCAUG here?
Answer: ≤ -4.2

Question: For GGAUCUUCUCGAUCUAACAACAAAGACAAAUCUGCCACAAAGCUUGAGAGCAUCUUCGGAUGCAGAGGCGGCAGCCUUCGGUGGCGCGAUUGCGCCAACGUUCUCAACUAUGACACGCAAAACGCGUGCUCCGUUGAAUGGAGUUUAUCAUG, which “polymerase ribozyme fitness (log ratio)” value is on record?
Answer: ≤ -4.2

Question: For GGAUCUUCUCGAUCUAACAACAAAGACAAAUCUGCCACAAAGCUUGAGAGCAUCUUCGGAUGCAGAGGCGGCAGCCUUCGGUGGCGCGAUUGCGCCAACGUUCUCGACUAUGACACGCAAAACGCGUGCUCCGUUGAAUGGAGUUUAUCAUG, which “polymerase ribozyme fitness (log ratio)” value is on record?
Answer: ≤ -4.2

Question: With GGAUCUUCUCGAUCUAACAACAAAGACAAAUCUGCCACAAAGCUUGAGAGCAUCUUCGGAUGCAGAGGCGGCAGCCUUCGGUGGCGCGAUAGCGCCAACGUUCUCAACUCUGACACGCAAAACGCGUGCUCCGUUGAAUGGAGUUUAUCAUG as the variant, how does the “polymerase ribozyme fitness (log ratio)” value read?
Answer: ≤ -4.2

Question: With GGAUCUUCUCGAUCUAACAACAAAGACAAAUAUGCCACAAAGCUUGAGAGCAUCUUCGGAUGCAGAGGCGGCAGCCUUCGGUGGCGCGAUAGCGCCAACGUUCUCAACUAUGACACGCAAAACGCGUGCUCCGUUGUAUGGAGUUUAUCAUG as the variant, how does the “polymerase ribozyme fitness (log ratio)” value read?
Answer: ≤ -4.2

Question: With GGAUCUUCUCGAUCUAACAACAAAGACAAAUUUGCCACAAAGCUUGAGAGCAUCUUCGGAUGCAGAGGCGGCAGCCUUCCGUGGUGCGAUAGCGCCAACGUUCUCUACUAUGACACGCAAAACGCGUGCUCCGUUGAAUGGACUUUAUCAAG as the variant, how does the “polymerase ribozyme fitness (log ratio)” value read?
Answer: ≤ -4.2

Question: With GGAUCUUCUCGAUCUAACAACAAAGACAAAUCUGCGACAACGCUUGAGAGCAUCUUCGGAUGCAGAGGCGGUUGCCUGCGGUGGCGCGAUAGCGCUAACGUUCUCAACUAUGACACGUAAAACGCGUACUCCGUUGAAUGGUGUUUAUCAUG as the variant, how does the “polymerase ribozyme fitness (log ratio)” value read?
Answer: ≤ -4.2

Question: With GGAUCUUCUCGAUCUAACAACAAAGACAAAUCUGCCAUAAAGCGUGAGAGCAUCUUCGGAUGCAGAGGCGGCAGCCUUCGGUGGCGCGAUAGCGCCAACGUUCUCAACUAUGACACGCAAAACUCGUGCUCCGUUGAAUGGAGUUUAUCAUG as the variant, how does the “polymerase ribozyme fitness (log ratio)” value read?
Answer: ≤ -4.2

Question: With GGAUCUUCUCGAUCUAACAACAAAGACAAAUCUGCCACAAAGUUUGAGAGCAUCUUCGGAAGUAGAGGCGGCAGCCUUCGGUGGCGCGAUAGCGCCAACGUUCUCAACUAGGACACGCAAAACGCGUGCUCCGUUGAAUGGAGUUUAUCAUG as the variant, how does the “polymerase ribozyme fitness (log ratio)” value read?
Answer: ≤ -4.2

Question: With GGAUCUUCUCGAUCUAACAACAAAGACAAAUCUGCCACAAAGCUUGAGAGCAUCUUUGGAUGCAGAGGCGGCAGCCUUCGGUGGCGCGAUAGAGACAACGUUCUCAACUAUGACACGCAAAACGCGUGCUCCGUUGAAGGGAGUUUAUCAUG as the variant, how does the “polymerase ribozyme fitness (log ratio)” value read?
Answer: ≤ -4.2

Question: Which “polymerase ribozyme fitness (log ratio)” value does the source give for GGAUCUUCUCGAUCUAACAACAAAGACAAAUCUGCCACAAAGCUUGAGAGCAUCUUCGGAUGCAGAGGCGGCAGCCUUCGGUGGCGCGAUAGAGCCAACGUUCUCAGCUAUGACACGCAAACCGCGUGCUCCGUUGAAUGGAGUUUAUCAUG here?
Answer: ≤ -4.2

Question: For GGAUCUUCUCGAUCUAACAACAAAGACAAAUCUGCCACAAAGCUUGAGAGCAUCUUCGGAUGCAGAGGCGGCAGCCUUCGGUGGCGCGAUAGCGCCAACGUUCUCAACUAUGACAUGCAAAACGCGUGCUCCGUUGAAUGGAGUUUAUCAUG, which “polymerase ribozyme fitness (log ratio)” value is on record?
Answer: 0.668

Question: For GGAUCUUCUCGAUCUAACAACAAAUACAAAUCUGCCACAAAGCUUGAGAGCAUCUUCGGAUGCAGAGGCGGCAGCCUUCGGUGGCGCGAUAGCGCCAACGUUCUCAACUAUGACACGCAAAACGCGUGCUCCGUUGAAUGAAGCUUAUCAUG, which “polymerase ribozyme fitness (log ratio)” value is on record?
Answer: ≤ -4.2

Question: For GGAUCUUCUCGAUCUAACAACAAAGACAAAUCUGCCACAAAGCUUAAGAGCAUCUUCGGAUGCAGAGGCGGCAGCCCUCGGUGGCGCGAUAGCGCCAACGUUCUCAACUAUGACACGCAAUACGCGUGCUCCGUUGAAUGGAGUUUAUCAUG, which “polymerase ribozyme fitness (log ratio)” value is on record?
Answer: ≤ -4.2

Question: For GGAUCUUCUCGAUCUAACAACAAAGACAAAUCUGCCACAAAGCUUUAGAGCAUCUUCGCAUGCAGAGGCGGCAGCCUUCGGUGGCGUGAUAGCGCCAACGUUCUCAACUAUGACACGCAAAACGCGUGCUCGGUUGAAUGGAGUUUAUCAUG, which “polymerase ribozyme fitness (log ratio)” value is on record?
Answer: ≤ -4.2

Question: With GGAUCUUCUCGAUCUAACAACAAAGACAAAUCUGCCACAAAGCUUGAGACCAUCUUCGGAUGCAGAGGCGGCAGACUUCGGUGGCUCGAUAGCGCCAUCGUUCUCAGCUAUGACACGCAAAACGCGUGCUCCGUUGAAUGGAGUUUAUCAUG as the variant, how does the “polymerase ribozyme fitness (log ratio)” value read?
Answer: ≤ -4.2

Question: With GGAUCUUCUCGAUCUAACAACAAAGACAAAUCUGCCACAAAGCUUGAGAGCAUCUUCGAAUGCAGAGGCGGCAGUCUUCGGUGGCGAGAUAGCGCCAACGUUCUCUACUAUGACACGCAAAACGCGUGCUCCGGUGAAUGGAGUUUAUCAUG as the variant, how does the “polymerase ribozyme fitness (log ratio)” value read?
Answer: ≤ -4.2
